This note sets out measurements from the RNAGym collection of RNA variant scans (doi:10.7554/elife.90254).

B1: OR4K15 (parent)
chain: GUUAACGGUCAUAGGCCAUGGAAACUAGGAGCACCAUUUCGCUGCCAGUGAAGAAAUGAACAAAGAAAAUCUGGGCCAGGCAGGCAUCAAAAGAAAUAGUCUUGCGCUCAACCAGAAAGUCUGUAAUCAUUUUAAGGGUA

Read counts are not given, so values of variants with three or more changes are uncertain.

This data set covers variants of B1. Put plainly: self-cleavage, relative activity (ratio to wild type); higher = more cleavage; in vitro, sequencing; the parent is a self-cleaving ribozyme.
Regarding A54U A66G A135G, the self-cleavage came to 2.06.
As for A55G A60G A66G, the self-cleavage was 0.76.
For A56G A62G A69G, the self-cleavage was determined as 0.58.
The result for A56G A67G G75C A95G U120C reads 0.19; that for A55G C71U U130C, 0.15; that for A54G U72C A111G U120C, 0.07.
On to A56G A59G A69G U72A A117G, for which the self-cleavage came out at 0.48.
On to A56G A64U A91G, for which the self-cleavage came to 0.61.
Under A55G A63G A111G stands 0.02; under A55G U72C A140U, 0.27.
For A54U A66G A116G U124C, the self-cleavage is 0.09.
As to A55G A68G A69U A90G G93A U132A, the self-cleavage was 0.83.
Take A56G A78G A118G: the self-cleavage amounted to 0.1.
On to A55G A56G A68G A111G A135U, for which the self-cleavage came to 0.02.
On to A55U A63G A129G, for which the self-cleavage was 1.8.
As for A55G U102C A111G U133C, the self-cleavage amounted to 0.01.
On to A55G U102C A135U, for which the self-cleavage stood at 1.66.
Under A55G U87C A111U stands 0.02.
Regarding A55G A60C A67G, the self-cleavage is 1.16.
As for A55U U70C U72C U87C, the self-cleavage turned out to be 0.17.
As to A54G C76G A78C A126U, the self-cleavage worked out at 0.06.
In the case of A56G A60G A78U A98U, the self-cleavage is 0.76.
The result for A55G A63G A82U reads 0.23; that for A55G A63G A82G, 0.77.
For A55G A64G A116G, the self-cleavage is 0.68.
In the case of A55G A59U U127A, the self-cleavage came out at 1.79.
In the case of A55G A92G A135G, the self-cleavage was 1.65.
Turning to A55G A62U U70C A114G, the self-cleavage was found to be 0.03.
Under A55G A66G U72C A96G U108C A117G stands 0.02.
Consider A55U U72C G106A, for which the self-cleavage stood at 0.02.
As to A56G A59G C113A U130C, the self-cleavage was 0.04.
As to A55G A59G A116U U127C U139C, the self-cleavage was 0.25.
The result for A54U A67C A110C A117G reads 0.42; that for A56G A78G U102C, 0.26; that for A56G A60U A67G A89U, 2.33.
Regarding A55G A90G A126G U131C U139G, the self-cleavage was determined as 1.29.
As to A54U U97A U102G U103G A118G, the self-cleavage was determined as 0.02.
Consider A54U G83A U87C A118G, for which the self-cleavage came to 0.98.
Under A55G A66C A67G A69G U72A A92G U108C stands 0.01; under A54G U122A U127C U130C, 0.98.
A55G A67G A68G A98G A118G: the self-cleavage worked out at 0.12.
Under A56G A64G A94G U122C U124C U131C stands 0.39.
The result for A56G A82G U100C U108A reads 0.03; that for A55U A82G A135U, 0.58.
Under A56G A64G U103A A117G A129G stands 0.26.
With A56C U70C A91G U103A, the self-cleavage worked out at 0.12.
Turning to A55U A56G A95G U132C, the self-cleavage came out at 2.03.
On to A55U U57C G119U, for which the self-cleavage was found to be 1.44.
Under A55G U102C A116G stands 0.64.
Under A54G G75A A92U U100C stands 0.02; under A55G G58A A67G U72A U122A, 0.11; under A56G A66G A110U, 1.27.
As for A55G A117G U131C, the self-cleavage stood at 2.29.
Take A56G A86G U87A: the self-cleavage came to 1.39.
Under A55G U72C A91G stands 0.16; under A55G A92G A111G, 0.02; under A55G A68G U122A, 1.29.
Under A54U A82U U127C stands 0.09; under A54G U72C A78U U87C A116U, 0.02.
As to A54G U108C G138A, the self-cleavage is 0.02.
On to A56G A68G C77A, for which the self-cleavage was 1.02.
For A55G A78G A89G A96U, the self-cleavage is 0.33.
In the case of A55G U57C A69G, the self-cleavage is 0.74.
As to A54U U70C A125G A126G, the self-cleavage was 0.1.
For the variant A54G U57C A92G A114G A118G U124C, the self-cleavage came to 0.02.
For A55U A67G U132A A134G, the self-cleavage was 0.64.
Under A55G U103C U131C stands 0.78; under A54G G79A A90G U97C A98U, 0.09.
For the variant A55G A69G A86G, the self-cleavage was determined as 1.41.
The result for A55G A114G U122C reads 0.41.
As for A55G A62U A82G U100A, the self-cleavage came to 0.1.
As for A56G A67G A114G, the self-cleavage is 0.26.
As to A55G A56G A114G U122C, the self-cleavage came out at 0.09.
Under A55G A56G A64G U87A U133A stands 0.88.
Consider A55G A68G A86U G123A, for which the self-cleavage was 2.2.
Consider A55G A89G U108C, for which the self-cleavage was 0.01.
Turning to A55G A60G A69U A117G A126G, the self-cleavage came out at 0.58.
Consider A56G A78G C105U, for which the self-cleavage is 0.08.
The result for A55G A110G U127A reads 0.32; that for A54G C105U U130C, 0.03; that for A55G A67G U103A, 0.95.
As to A55G U72C U127C U131C, the self-cleavage came out at 0.07.
With A54G C101G A110G A118G, the self-cleavage is 0.02.
As for A55G A90G U122C, the self-cleavage was 0.21.
Regarding A55G U57C A64G, the self-cleavage came to 0.52.
For the variant A55G A92G C121G, the self-cleavage was found to be 2.17.
With A56G A60G A95G, the self-cleavage worked out at 1.84.
Turning to A55U U87C U122A, the self-cleavage came out at 0.64.
Consider A56G A78G A96C U103C, for which the self-cleavage was found to be 0.06.
A54U U70C A129G A140G: the self-cleavage came to 0.43.
Take A54U A67U U108C: the self-cleavage was 0.03.
Take A56G A66G A92U A135G: the self-cleavage came to 0.74.
In the case of A54U A56G A129G, the self-cleavage amounted to 0.62.
A55G A78U A110U: the self-cleavage was 0.08.
Regarding A55G A95G U108C, the self-cleavage was determined as 0.01.
The result for A55G A64G A114U reads 0.05.
The result for A54G U87C A116G reads 0.35; that for A54U A91G U100C, 2.53.
The result for A55C U70C U131C reads 0.27; that for A54G C76U A92G U132G, 0.06; that for A55C U57C A69G U72C, 0.21.
As for A56G A69G A94G A117G A126G, the self-cleavage was found to be 1.42.
As to A56G A64G A69G, the self-cleavage amounted to 1.62.
For the variant A55G C105U A116G, the self-cleavage was found to be 0.02.
On to A54U U70C C76G A90G, for which the self-cleavage was 0.1.
Regarding A56G A67G U102C U132C, the self-cleavage came out at 0.95.
For A55G U130A A135G, the self-cleavage was 0.33.
Regarding A55G A66G A78G A116G, the self-cleavage is 0.2.
On to A56G A86C U97C A111G, for which the self-cleavage was 0.01.
For A54G G58U A66U, the self-cleavage amounted to 0.92.
Regarding A55G A60G A86G U130C, the self-cleavage is 0.72.
In the case of A55G A67U U132C, the self-cleavage was determined as 2.1.
Consider A56G A82U U122C G138C, for which the self-cleavage amounted to 0.11.
A55G A98U A134G: the self-cleavage was 1.37.
Take A56G A59U U130C: the self-cleavage stood at 1.37.
A55G A91G A95G U124C C128U: the self-cleavage came out at 0.87.
The result for A55G A82G A111U reads 0.12; that for A55G A90U A111G A116G A134G, 0.
A54G A110G A111G A116G: the self-cleavage was found to be 0.04.
Under A55G U57C U97C stands 0.61; under A55G U57C A94G A135G, 1.33; under A54G A96G U108C, 0.01.
With A55G A63G A67U A89G, the self-cleavage was found to be 0.86.
With A54G A114U A118G, the self-cleavage was 0.07.
For the variant A56G A62C A78G A82U, the self-cleavage worked out at 0.1.
For the variant A55U U103C A111G, the self-cleavage is 0.01.
In the case of A55G A82U A140U, the self-cleavage turned out to be 0.1.
A55G A89U A94U U132C: the self-cleavage came to 1.8.
Under A55G A68G U87C A89G A118G stands 0.29; under A55G G75A A90G, 0.04; under A54G A116C G136C, 0.09.
Consider A55G A67G U127C, for which the self-cleavage was 0.73.
For the variant A55G C101A U122C A140G, the self-cleavage was 0.06.
Regarding A54G G93U U131C, the self-cleavage was 2.
With A56G A60G A89G, the self-cleavage came to 1.61.
Under A55G A69U G106C A111G U132C stands 0.01.
For the variant A55G A60G A66G A68U, the self-cleavage amounted to 1.6.
With A55G A117U U122C, the self-cleavage amounted to 1.11.
Under A56G A67G U72C stands 0.28; under A54G U57C A63G G75A A86G, 0.17.
A55U A116G A135U: the self-cleavage came to 0.93.
Take A55G A68G A69G A78G: the self-cleavage turned out to be 0.45.
On to A55G U70G U132A, for which the self-cleavage came out at 0.84.
For the variant A56G A60G U139C, the self-cleavage amounted to 1.55.
Take A55G A56G U100A: the self-cleavage came out at 0.84.
The result for A54G A96G U100C A111U A140U reads 0.26.
On to A55G A68U U120C, for which the self-cleavage was 0.82.
Consider A55G A64G A78U A82G, for which the self-cleavage was found to be 0.13.
Consider A55G A92G U102C A135U, for which the self-cleavage was 0.86.
Consider A55G A95G U122C, for which the self-cleavage amounted to 1.3.
Regarding A55G A59G A90U, the self-cleavage was 1.6.
For A56G A68G C88A U102A A125G, the self-cleavage is 0.13.
For the variant A55G A89U U108C, the self-cleavage came out at 0.01.
Turning to A54G U102C A118G, the self-cleavage came to 0.25.
For A55G U87C A91G, the self-cleavage was determined as 1.5.
Under A54G G84C U132C stands 0.47; under A56G A64G U108C, 0.04; under A56G A64G U108A, 0.03.
With A56G A59G A86G U100A U102C, the self-cleavage was determined as 2.13.
The result for A55G A82U A114G reads 0.07; that for A56G A62U U139C, 2.12.
Take A56G A62U U70C: the self-cleavage is 0.24.
As for A55G U122C A129G U132C, the self-cleavage was found to be 0.55.
In the case of A55G A69U A82U A95G A126U, the self-cleavage came out at 0.29.
In the case of A56G A60G A68G U102C, the self-cleavage was determined as 1.13.
Consider A54G U108C A125G, for which the self-cleavage is 0.
Take A56G A67G A89G: the self-cleavage was found to be 1.12.
